Read counts are not given, so values of variants with three or more changes are uncertain.

B1: OR4K15 (parent)
chain: GUUAACGGUCAUAGGCCAUGGAAACUAGGAGCACCAUUUCGCUGCCAGUGAAGAAAUGAACAAAGAAAAUCUGGGCCAGGCAGGCAUCAAAAGAAAUAGUCUUGCGCUCAACCAGAAAGUCUGUAAUCAUUUUAAGGGUA

In this data set the parent is B1. As to the kind of experiment: self-cleavage, relative activity (ratio to wild type); higher = more cleavage; in vitro, sequencing; the parent is a self-cleaving ribozyme.
Regarding U26C U70C U87C A98U A111G, the self-cleavage stood at 0.01.
The result for U26A A36G U49C G93A reads 1.75; that for A27G A52U U87C A118G U122C, 0.82.
The result for A24U A59G A68G A114G reads 0.43.
The result for A24G A54G C113U reads 0.24.
As for U26C A30U U38A A54G A69G, the self-cleavage turned out to be 1.14.
To C25U A30U A55G A62G U103C belongs 0.72; to A24G U49C A117G U131C, 1.47; to A24U A33G U38A A78U, 0.09.
For A24G U72C A89G A92G, the self-cleavage worked out at 0.25.
The result for A27G A60G A82U A118G reads 0.09; that for A24G A52G A55G U70C A86G U120C, 0.27.
To U26A A27G A52U A94G A126G belongs 1.38; to A24G U70A A86G, 0.43; to U26C A47U A111G, 0.01.
To A24G U57C A78U belongs 0.24.
As to A24G U37C A117G, the self-cleavage came to 1.51.
Regarding A24U A52U A62G, the self-cleavage is 1.76.
The result for U26A A67G U122C reads 0.65; that for A24U A33G A94G A125G A140G, 0.19.
To C25U A60G A82G U130C belongs 0.26.
The result for A24G A51G G65A U87C A118G U120A reads 0.48; that for A24G A67G A117G U131C, 1.45; that for A27G A67G A126G, 0.98.
In the case of U26C U49G A59G A62G U139C, the self-cleavage amounted to 0.9.
The result for A24U U38C U97C reads 2.12; that for A24G C81U U132C, 0.74.
The result for A27G A69G A116G reads 0.5.
To A24U A94G A110G belongs 0.13; to U26C A55G A91U U120A, 1.51.
In the case of A24G A96G U120C, the self-cleavage came to 0.79.
In the case of A24G A52U A56G A67G U87C A117U, the self-cleavage was 0.
To A24U C40A A94G belongs 1.53; to U26C C40A A54G, 1.94; to U26C A117G U120C, 0.48.
To A27G A33G A89G A118G belongs 0.33; to A24U U39C A52C, 0.82; to A24G U43C A82U, 0.18.
To A27G A78G A94G belongs 0.32; to A24G U43C A82G A92G, 0.33.
For A24G A116U A118G, the self-cleavage was found to be 0.07.
The result for A27G A64G A110G A129C U131C reads 0.03; that for A27G A52U A116G U131C, 0.56; that for A27G A30G A91G, 0.81.
To U26C A27U U37C A114G belongs 0.46; to C25U U72A A95G, 0.35.
To A24G A67C A129G belongs 1.09; to A24G A95G A135C, 1.9; to U26A A27G U37C A116G, 0.42.
For A24G U38C A95G, the self-cleavage was determined as 2.02.
On to A24G A51G U130A A135U, for which the self-cleavage amounted to 1.36.
To A24G A59G U108C belongs 0.02.
The result for U26C U39A A82G A111G reads 0.05.
The result for A24G A47U U102C reads 1.75.
As to A24G A90G U139A, the self-cleavage amounted to 0.89.
As for A24G A52G A95G U122A, the self-cleavage was 1.07.
The result for A24G A59G A96G reads 1.22; that for A24U A51G A62U A63G A116G U127C, 0.4.
On to C25U A52G A62G A125G, for which the self-cleavage was found to be 1.35.
Regarding U26A A92G U130C A134U, the self-cleavage stood at 0.86.
The result for U26C G41A A67G A95G reads 1.73; that for C25U U39C U103C, 0.93.
To A24G A66U A95G U130C belongs 0.78; to A24G C40A A89G A92G U127C, 1.18; to U26C U120C U122A, 1.2.
To C25A A67C A117G U132C belongs 1.95; to A24G U57A U120A, 0.62; to U26C A30G A126G, 1.03.
Regarding U26C A94G A118G, the self-cleavage is 1.81.
To U26C U37C A64G A66G U102C A117G belongs 1.26; to A24G U49A A82G, 0.58; to U26C A60G A96U A135G, 1.42.
For the variant C25U A60G U108G U127C, the self-cleavage stood at 0.01.
As for C25A U43C A78G, the self-cleavage amounted to 0.16.
The result for A27G A62G A140U reads 1.02; that for C25A A54G A55C A64U A91G, 0.61; that for A27G A60U A78G A95U U97C A111G, 0.01.
To A24G U49C U103C U120C belongs 0.68; to A24G U39C U43C U131C, 1.32; to A24G A51G A110G A114U A116G, 0.02.
A24G A52G A60C A66G A69G A78C A110G U120C: the self-cleavage amounted to 0.13.
The result for A24G U38C A67G A98U A125G reads 1.05; that for A24U A94G U108C, 0; that for A24G A54G U72A, 0.05.
The result for U26C A60G A69G U72C A110G reads 0.15.
To U26C U39C A55U U57C belongs 1.5; to U26C U70G A91G, 0.37; to A24G A52G A92G, 1.27.
For A27G A33G A86G A125G, the self-cleavage was 0.56.
For the variant A24G U43C U72A G79U, the self-cleavage came to 0.18.
Take U26A A69G A111G: the self-cleavage is 0.02.
To U26C U37C G44A belongs 1.74.
The result for A24G A64G A66G U72C reads 0.5; that for A24U C45U A52U A66G A90G, 1.63; that for A24U C35A A51G U87C A110G, 0.05.
The result for A24G G48A U72C G75A U132C reads 0.25; that for A24G U38C C105G A126G U130C, 0.
As for A24G A114G U120C, the self-cleavage amounted to 0.17.
As for A24U U43C U49A A62G A86G U124C, the self-cleavage stood at 0.52.
A24G U49A A69G A94U: the self-cleavage stood at 0.96.
For U26C A64G A98U A117U, the self-cleavage came out at 1.24.
The result for A24G A89G A94G reads 0.88.
For A24G U49C A59G A67G G84A U108C U132C, the self-cleavage stood at 0.
The result for A24G G58U U132C reads 1.99; that for U26C A60G U72C U103C A110U U132C G138A, 0.1.
The result for A24G A52C A82U A92G A129G reads 0.12; that for A24G U72C U127C A140G, 0.12; that for A24G A55U A82G A111G, 0.04.
As to C25G C61U A116G, the self-cleavage was found to be 0.88.
To C25U A68G A82G A125G belongs 0.14; to A24G U38C A86G, 1.36.
The result for U26C G29U A82U U100C reads 0.61; that for A24U A56G A78G A91G U130C, 0.09; that for A27G A64G G65A, 0.73.
For the variant U26A U39A A62U, the self-cleavage was 1.25.
The result for A24G A95G U127C reads 1.28.
For A27G A56G G75C, the self-cleavage came to 0.14.
The result for A24G G29A A30G A140G reads 1.42; that for A24G G83U A86G, 0.61; that for A24G A54G U108C, 0.07.
The result for U26A U49C A140G reads 1.63; that for A24G A47U A52U, 0.09; that for U26C U120C U127C, 0.48.
To C25U A27G A47G belongs 1.06.
Turning to A27G A67G G80A U102C, the self-cleavage was 0.69.
For the variant A24G A82G U87C U120C, the self-cleavage turned out to be 0.13.
The result for A24G G29A A59G G106A A111G reads 0.02.
Turning to A24G A54G A82G, the self-cleavage stood at 0.73.
As for U26C U43A A110G A134G, the self-cleavage amounted to 0.15.
To A24G A55G A90G belongs 0.32; to A24G A94G U127C, 1.21; to U26C U38A A62G U87C A117U U122C, 0.29.
Consider A24G U37C U102C A118G, for which the self-cleavage stood at 2.03.
To A24G A67U A111G U132C belongs 0.02; to A24G G115U A126U, 0.36.
To A24G A56U A126G belongs 0.25.
The result for U26A A64G A78G A90G A116G reads 0.06.
Consider U26A A51G A94G, for which the self-cleavage was 1.73.
To A24G U37C A67U U97C belongs 1.49; to A24G A54G A86G, 1.48; to A24G A51U A89G A111G, 0.02.
As to A24G U49C A95G, the self-cleavage came to 1.12.
To A27G A60G A117U U130C belongs 0.82.
To A24G U26C A47U U103C belongs 0.49.
To C25U C77U G93U belongs 1.29; to A24U A63G A67G, 1.88.
As to U26C A95G U124C, the self-cleavage stood at 1.23.
The result for A24U A54G A60G A89G reads 0.33.
The result for A27G A54G A60C A64C reads 0.9; that for A27G A52G C61U C107U A118G U122C, 0.01; that for A24G U38C A51G A129U A135U, 0.25.
To A24G U43G A69G A91G U131C belongs 1.36; to U26C A89G A94G U108C, 0.03.
Turning to A24G U38A A82G U102C, the self-cleavage was found to be 0.51.
The result for A27G A54G A55G U87A A111G U130C reads 0.06.
The result for A24U U49C C77U reads 0.61; that for A24U A33G A95G A118U, 1.4.
To A24G U57C A116G belongs 0.07; to A27G A60U U70C, 0.7.
Turning to U26C A54G A67G A92G, the self-cleavage was found to be 2.11.
Regarding U26C A66G A67G U102A, the self-cleavage was found to be 0.21.
To U26C A66G A96U U108C U127C belongs 0.01; to U26C A52U U131C, 1.41; to A24G A51G A92G, 1.03.
With U26C A54U A56G A67G G99A, the self-cleavage worked out at 0.14.
The result for A27G A56G A67G A69U A129G reads 1.11; that for A24G U43C A60G C128A, 0.45.

For the origin of these results see the RNAGym collection of RNA variant scans (doi:10.7554/elife.90254).
